Measurements published in paper PMC12820563.
The other results are listed elsewhere or left out. The list includes weakly bound sequences.

The sequences below were run against T1, MBP-FoxP3dN (UniProt Q99JB6) (assay: PD-seq (MBP pull-down with sequencing)). Settings: 20 mM Tris-HCl pH 7.5, 100 mM NaCl, 1.5 mM MgCl2, 0.4 uM protein, 0.1 uM dsDNA library, 30 min, room temperature, amylose pull-down; high values mean tight binding; double strand, one strand shown.
T1 sequence: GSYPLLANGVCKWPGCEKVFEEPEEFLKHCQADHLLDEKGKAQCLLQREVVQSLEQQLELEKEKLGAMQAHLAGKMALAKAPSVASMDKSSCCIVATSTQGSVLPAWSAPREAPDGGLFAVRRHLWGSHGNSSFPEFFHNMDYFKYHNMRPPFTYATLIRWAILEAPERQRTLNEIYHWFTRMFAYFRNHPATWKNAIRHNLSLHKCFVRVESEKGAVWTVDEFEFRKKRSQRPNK

Row | Sequence | binding signal (RPM ratio (pull-down/input))
1 | GATGATTGTTCTCCCAGCTGATGAATTTTAAGGATCGAGTAAACAAATTTTCCTAATCTTTCTGTTCAAGCGCCATCTAC | 0.237
2 | GATGATTGTTCTCCCAGCTGATGAATTCGGAGTTTCGAGTAAACAAATTTTCCTAATCTTTCTGTTCAAGCGCCATCTAC | 1.13
3 | GATGATTGTTCTCCCAGCTGATGAATTAAGGTACTCGAGTAAACAAATTTTCCTAATCTTTCTGTTCAAGCGCCATCTAC | 0.521
4 | GATGATTGTTCTCCCAGCTGATGAATTCTCATTTTCGAGTAAACAAATTTTCCTAATCTTTCTGTTCAAGCGCCATCTAC | 0.447
5 | GATGATTGTTCTCCCAGCTGATGAATTAACTGTGTCGAGTAAACAAATTTTCCTAATCTTTCTGTTCAAGCGCCATCTAC | 0.556
6 | GATGATTGTTCTCCCAGCTGATGAATTGGATCCCTCGAGTAAACAAATTTTCCTAATCTTTCTGTTCAAGCGCCATCTAC | 0.245
7 | GATGATTGTTCTCCCAGCTGATGAATTTGCTCCATCGAGTAAACAAATTTTCCTAATCTTTCTGTTCAAGCGCCATCTAC | 0.472
8 | GATGATTGTTCTCCCAGCTGATGAATTAGGTCACTCGAGTAAACAAATTTTCCTAATCTTTCTGTTCAAGCGCCATCTAC | 0.628
9 | GATGATTGTTCTCCCAGCTGATGAATTTCACGATTCGAGTAAACAAATTTTCCTAATCTTTCTGTTCAAGCGCCATCTAC | 0.263
10 | GATGATTGTTCTCCCAGCTGATGAATTGCATACGTCGAGTAAACAAATTTTCCTAATCTTTCTGTTCAAGCGCCATCTAC | 1.16
11 | GATGATTGTTCTCCCAGCTGATGAATTCGCATGTTCGAGTAAACAAATTTTCCTAATCTTTCTGTTCAAGCGCCATCTAC | 1.95
12 | GATGATTGTTCTCCCAGCTGATGAATTCTTACCTTCGAGTAAACAAATTTTCCTAATCTTTCTGTTCAAGCGCCATCTAC | 0.238
13 | GATGATTGTTCTCCCAGCTGATGAATTTTGTCAATCGAGTAAACAAATTTTCCTAATCTTTCTGTTCAAGCGCCATCTAC | 0.939
14 | GATGATTGTTCTCCCAGCTGATGAATTCCTAGATTCGAGTAAACAAATTTTCCTAATCTTTCTGTTCAAGCGCCATCTAC | 0.206
15 | GATGATTGTTCTCCCAGCTGATGAATTAACAATGTCGAGTAAACAAATTTTCCTAATCTTTCTGTTCAAGCGCCATCTAC | 0.512
16 | GATGATTGTTCTCCCAGCTGATGAATTAACGCGTTCGAGTAAACAAATTTTCCTAATCTTTCTGTTCAAGCGCCATCTAC | 1.52
17 | GATGATTGTTCTCCCAGCTGATGAATTGATTAAATCGAGTAAACAAATTTTCCTAATCTTTCTGTTCAAGCGCCATCTAC | 0.244
18 | GATGATTGTTCTCCCAGCTGATGAATTGGTACCTTCGAGTAAACAAATTTTCCTAATCTTTCTGTTCAAGCGCCATCTAC | 0.507
